Experimental data reported in patent publication US20230272055A1, “ANTI-MUTANT CALRETICULIN (CALR) ANTIBODIES AND USES THEREOF” (Incyte Corporation, priority 2021, published 2023).

Legend:
[1] = biological target: T1, recombinant MBP-mutCALR Type 1 fusion protein (Homo sapiens, UniProt P27797, DEL40-40); assay: Biacore SPR binding kinetics, Experiment 1; conditions: Biacore 8K, 25° C., 1:1 binding model
T1 construct: His6 (N); purchased Cepter (cepterbiopartners.com), custom made
Experimental: The amino acid sequence of recombinant MBP-mutCALR Type 1 fusion protein used in Experiments 1 and 2 is:
Experiment 1: Recombinant MBP-mutCALR Type 1 fusion protein was custom made at Cepter (cepterbiopartners.com). Data for the interaction of antibodies with recombinant MBP-mutCALR Type 1 fusion protein were collected at 25° C. on a Biacore 8K instrument (Cytiva, Marlborough, Mass.), and all reagents were obtained from Cytiva unless otherwise specified. The experiments were conducted using Tris-buffered saline (pH 7.2), 0.005% Surfactant P20, 1 mM CaCl2) as running buffer. To prepare the capture surfaces, anti-human IgG (Fc) antibodies (Product #29234600) was amine-coupled onto a CM4 chip (Product #BR100534) under standard conditions using an Amine Coupling Kit (Product #BR100050). Anti-mutCALR antibodies were captured onto the chip surface by injecting over flow cell 2 only at a flow rate of 30 μL/min for 30 seconds. […] The kinetics parameters were obtained by applying 1:1 binding model to fit the data from multiple-cycle injection experiments using Biacore Insight Evaluation software.

[2] = system: MPL-mutCALR cells (BaF3 cells stably expressing human MPL and human mutCALR); assay: Flow cytometry binding to cell surface MPL and mutCALR (GMFI, four parameter fit); conditions: for MPL-mutCALR AUC: area under the curve of GMFI cell binding; for MPL-mutCALR EC50 (μg/ml) / MPL-mutCALR Hill Slope: cell binding, GMFI, four parameter curve fitting
Experimental: To assess binding of CALR antibodies to cell surface CALR, parental BaF3 (DSMZ) cells or BaF3 cells stably expressing only human MPL or both human MPL (Uniprot Number: P40238-1) and human mutCALR Type 1 and Type 2 were used. On the day of the assay, cells were washed and resuspended in assay buffer. Approximately 200,000 cells/well were added to 96-well plates and stained with the indicated concentration of antibodies for 30 minutes on ice. Cells were then washed and stained with goat anti-human secondary conjugated to R-phycoerythrin (R-PE) (Jackson Immuno Research Laboratories) for 30 minutes on ice. The cells were then washed and analyzed by flow cytometry. Geometric Mean Fluorescence Intensity (GMFI) of cell binding was graphed and EC50, hill slope, and area under the curve (AUC) were determined after four parameter curve fitting using GraphPad Prism Software (version 7.04).

[3] = system: Ba/F3 cells transfected with MPL and mutCALR Type 1; assay: Inhibition of cell proliferation, CellTiter-Glo 72 hours, mutCALR Type 1; assay type: cell-based; conditions: Ba/F3 engineered cells, high-throughput primary screening
Experimental: To test the ability of anti-mutCALR antibodies to inhibit cell proliferation, engineered Ba/F3 cells transfected with MPL and mutCALR Type 1 were plated at 5,000 cells per well in RPMI 1640+2% FBS, antibodies added, incubated for 72 hours, and followed by assessment of cell viability using the CellTiter-Glo Luminescent Cell Viability Assay (Promega, Madison, Wis.) and Top Count (Perkin Elmer, Boston, Mass.) or Pherastar (BMG Labtech, Ortenberg, Germany) for luminescence quantification. Anti-mutCALR antibodies inhibit mutCALR-induced oncogenic cell proliferation in a dose-dependent manner in both the Ba/F3 engineered cells (FIG. 2).
To test the ability of anti-mutCALR antibodies to inhibit oncogenic cell proliferation triggered by the Type 1 and Type 2 CALR mutations, Ba/F3 cells (DSMZ) were engineered to express MPL+mutCALR Type 1 (52 bp deletion, SEQ ID NO:320) or MPL+mutCALR Type 2 (5 bp insertion; SEQ ID NO:321). Cells were plated at 5,000 cells per well in RPMI 1640+2% FBS, antibodies added, incubated for 72 hours, and followed by assessment of cell viability using the CellTiter-Glo Luminescent Cell Viability Assay (Promega, Madison, Wis.) and Top Count (Perkin Elmer, Boston, Mass.) or Pherastar (BMG Labtech, Ortenberg, Germany) for luminescence quantification. Anti-mutant CALR antibodies show potency to inhibit mutCALR-induced oncogenic cell proliferation associated with both Type 1 and Type 2 mutations (FIG. 3).

Row | Molecule | ka [1] [M⁻¹ s⁻¹] | kd [1] [s⁻¹] | MPL-mutCALR EC50 (μg/ml) [2] | IC50 inhibition of cell proliferation [3] [µg/mL] | MPL-mutCALR AUC [2] | MPL-mutCALR Hill Slope [2]
1 | 44 (antibody) heavy: EVQLVQSGAEVKKPGSSVKVSCKASGGTFSSYAISWVRQAPGQGLEWMGGIIPIFGTANYAQKFQGRVTITADESTSTAYMELSSLRSEDTAVYYCASSPLRGSGWYWHYYYGMDVWGQGTTVTVSSASTKGPSVFPLAPSSKSTSGGTAALGCLVKDYFPEPVTVSWNSGALTSGVHTFPAVLQSSGLYSLSSVVTVPSSSLGTQTYICNVNHKPSNTKVDKRV[omitted - human IgG1 Fc] light: SYVLTQPPSVSAAPGKTARISCGGNNIRSKSVHWYQQKAGQAPVLVIYQDSKRPSGIPERFSGSNSGNTATLTISGTQAMDEADYYCQAWDSNTVVFGGGTKLTVLGQPKAAPSVTLFPPSSEELQANKATLVCLISDFYPGAVTVAWKADSSPVKAGVETTTPSKQSNNKYAASSYLSLTPEQWKSHRSYSCQVTHEGSTVEKTVAPTECS | 263000 | 0.00101 | No Binding | 2.8910 | 22711 | No Binding
2 | 48 (antibody) heavy: EVQLVQSGAEVKKPGSSVKVSCKASGGTFSSYAISWVRQAPGQGLEWMGGIIPIFGTANYAQKFQGRVTITADESTSTAYMELSSLRSEDTAVYYCASSPLRGSGWYWHYYYGMDVWGQGTTVTVSSASTKGPSVFPLAPSSKSTSGGTAALGCLVKDYFPEPVTVSWNSGALTSGVHTFPAVLQSSGLYSLSSVVTVPSSSLGTQTYICNVNHKPSNTKVDKRV[omitted - human IgG1 Fc] light: SYVLTQPPSVSVAPGKTARITCGGNNIGSKSVHWYQQKPGQAPVLVIYQDRKRPSGIPERFSGSNSGNTATLTISGTQAMDEADYYCQAWDSSTAVFGGGTKLTVLGQPKAAPSVTLFPPSSEELQANKATLVCLISDFYPGAVTVAWKADSSPVKAGVETTTPSKQSNNKYAASSYLSLTPEQWKSHRSYSCQVTHEGSTVEKTVAPTECS | 181000 | 0.000297 | Low Binding | 0.1908 |  | Low Binding
3 | 49 (antibody) heavy: EVQLVQSGAEVKKPGSSVKVSCKASGGTFSSYAISWVRQAPGQGLEWMGGIIPIFGTANYAQKFQGRVTITADESTSTAYMELSSLRSEDTAVYYCASSPLRGSGWYWHYYYGMDVWGQGTTVTVSSASTKGPSVFPLAPSSKSTSGGTAALGCLVKDYFPEPVTVSWNSGALTSGVHTFPAVLQSSGLYSLSSVVTVPSSSLGTQTYICNVNHKPSNTKVDKRV[omitted - human IgG1 Fc] light: SYELTQPPSVSVAPGKTARITCGGNNIRAKHVHWYQQKPGQSPVLVIYQDSKRPSGIPERFSGSNSGSTATLTISRVEAGDEADYYCQVWDSSTVVFGGGTKLTVLGQPKAAPSVTLFPPSSEELQANKATLVCLISDFYPGAVTVAWKADSSPVKAGVETTTPSKQSNNKYAASSYLSLTPEQWKSHRSYSCQVTHEGSTVEKTVAPTECS | 185000 | 0.000669 |  | 0.2133 |  | 1.72

Second part, led by results:

Row | ka [1] [M⁻¹ s⁻¹] | kd [1] [s⁻¹] | MPL-mutCALR EC50 (μg/ml) [2] | IC50 inhibition of cell proliferation [3] [µg/mL] | Molecule | MPL-mutCALR AUC [2] | MPL-mutCALR Hill Slope [2]
4 | 214000 | 0.0011 | Low Binding | 0.6996 | 45 (antibody) heavy: EVQLVQSGAEVKKPGSSVKVSCKASGGTFSSYAISWVRQAPGQGLEWMGGIIPIFGTANYAQKFQGRVTITADESTSTAYMELSSLRSEDTAVYYCASSPLRGSGWYWHYYYGMDVWGQGTTVTVSSASTKGPSVFPLAPSSKSTSGGTAALGCLVKDYFPEPVTVSWNSGALTSGVHTFPAVLQSSGLYSLSSVVTVPSSSLGTQTYICNVNHKPSNTKVDKRV[omitted - human IgG1 Fc] light: SYVLTQPLSVSVAPGQTARITCGGNNIGRKSVHWYQQKPGQAPVLVIYRDSNRPSGIPERFSGSNSGNTATLTISRAQAGDEADYYCQVWDSSTVVFGGGTKLTVLGQPKAAPSVTLFPPSSEELQANKATLVCLISDFYPGAVTVAWKADSSPVKAGVETTTPSKQSNNKYAASSYLSLTPEQWKSHRSYSCQVTHEGSTVEKTVAPTECS |  | Low Binding
5 | 283000 | 0.00156 | No binding | 0.2779 | 46 (antibody) heavy: QVQLVQSGAEVKKPGSSVKVSCKASGGTFSSYAISWVRQAPGQGLEWMGGIIPIFGTANYAQKFQGRVTITADESTSTAYMELSSLRSEDTAVYYCASSPLRGSGWYWHYYYGMDVWGQGTTVTVSSASTKGPSVFPLAPSSKSTSGGTAALGCLVKDYFPEPVTVSWNSGALTSGVHTFPAVLQSSGLYSLSSVVTVPSSSLGTQTYICNVNHKPSNTKVDKRV[omitted - human IgG1 Fc] light: SYELTQPPSVSVAPGKTARITCGGNNIRSKSVHWYQQKPGQAPVLVVYQDSKRPSGIPERFSGSNSGNTATLTISGTQAMDEADYYCQVWDSSTAVFGGGTKLTVLGQPKAAPSVTLFPPSSEELQANKATLVCLISDFYPGAVTVAWKADSSPVKAGVETTTPSKQSNNKYAASSYLSLTPEQWKSHRSYSCQVTHEGSTVEKTVAPTECS | 28469 | No Binding
6 | 213000 | 0.000772 | No Binding | 0.5726 | 47 (antibody) heavy: EVQLVQSGAEVKKPGSSVKVSCKASGGTFSSYAISWVRQAPGQGLEWMGGIIPIFGTANYAQKFQGRVTITADESTSTAYMELSSLRSEDTAVYYCASSPLRGSGWYWHYYYGMDVWGQGTTVTVSSASTKGPSVFPLAPSSKSTSGGTAALGCLVKDYFPEPVTVSWNSGALTSGVHTFPAVLQSSGLYSLSSVVTVPSSSLGTQTYICNVNHKPSNTKVDKRV[omitted - human IgG1 Fc] light: SYELTQPPSVSVAPGKTARITCGGNKIGTKSVHWYQQKPGQAPVLVIYRDSNRPSGIPERFSGSNSGNTATLTISRAQAGDEADYYCQVWDSSTVVFGGGTKLTVLGQPKAAPSVTLFPPSSEELQANKATLVCLISDFYPGAVTVAWKADSSPVKAGVETTTPSKQSNNKYAASSYLSLTPEQWKSHRSYSCQVTHEGSTVEKTVAPTECS | 26698 | No Binding
